Reference: PubChem BioAssay (NCI)
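Step 1: Grow cells in 96-well plates. Step 2: Expose to compound for 48 hours at 5 concentrations. Step 3: Interpolate endpoints linearly; if unreached, use highest concentration. GI50 marks 50% less growth.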 Certain results were filed several times, with different values. This list holds those alone. There may be further records. For some assays here: The tests behind the records often covered other concentration ranges, which the source does not state; a value can be the end of its range.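 TGI: concentration producing complete growth inhibition.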 For some assays here: Values that stand side by side repeat one measurement (runs, samples, wells, individuals or studies). A tag in brackets gives the origin of a value. Letters count within one entry.

Experiments:
Assay in all cases: NCI anticancer screen, dose series, 48 h
ACHN renal = test system: ACHN renal
HL-60(TB) leukemia = test system: HL-60(TB) leukemia
RPMI-8226 leukemia = test system: RPMI-8226 leukemia
HS 578T breast = test system: HS 578T breast
MOLT-4 leukemia = test system: MOLT-4 leukemia
OVCAR-4 ovarian = test system: OVCAR-4 ovarian
DU-145 prostate = test system: DU-145 prostate
SR leukemia = test system: SR leukemia
CCRF-CEM leukemia = test system: CCRF-CEM leukemia
K-562 leukemia = test system: K-562 leukemia
SF-268 CNS = test system: SF-268 CNS
OVCAR-5 ovarian = test system: OVCAR-5 ovarian
SNB-19 CNS = test system: SNB-19 CNS
HCT-15 colon = test system: HCT-15 colon
T-47D breast = test system: T-47D breast
CAKI-1 renal = test system: CAKI-1 renal
COLO 205 colon = test system: COLO 205 colon
NCI-H522 lung = test system: NCI-H522 lung
MALME-3M melanoma = test system: MALME-3M melanoma
SK-OV-3 ovarian = test system: SK-OV-3 ovarian
OVCAR-8 ovarian = test system: OVCAR-8 ovarian
HCT-116 colon = test system: HCT-116 colon
SF-295 CNS = test system: SF-295 CNS
MDA-MB-435 = test system: MDA-MB-435
SK-MEL-2 melanoma = test system: SK-MEL-2 melanoma
M14 melanoma = test system: M14 melanoma
U251 CNS = test system: U251 CNS
NCI/ADR-RES ovarian = test system: NCI/ADR-RES ovarian
A498 renal = test system: A498 renal
EKVX NSCLC = test system: EKVX NSCLC
UO-31 renal = test system: UO-31 renal
A549 NSCLC = test system: A549 NSCLC
UACC-62 melanoma = test system: UACC-62 melanoma
SNB-75 CNS = test system: SNB-75 CNS
HCC-2998 colon = test system: HCC-2998 colon
SK-MEL-5 melanoma = test system: SK-MEL-5 melanoma
NCI-H226 lung = test system: NCI-H226 lung
NCI-H460 lung = test system: NCI-H460 lung
SK-MEL-28 melanoma = test system: SK-MEL-28 melanoma
NCI-H23 lung = test system: NCI-H23 lung
SF-539 CNS = test system: SF-539 CNS
SN12C renal = test system: SN12C renal
SW-620 colon = test system: SW-620 colon
PC-3 prostate = test system: PC-3 prostate
TK-10 renal = test system: TK-10 renal
RXF 393 renal = test system: RXF 393 renal
IGROV1 ovarian = test system: IGROV1 ovarian
HOP-62 NSCLC = test system: HOP-62 NSCLC
OVCAR-3 ovarian = test system: OVCAR-3 ovarian

With `Cc1cc2nc3ccc(=[N+](C)C)cc-3sc2cc1N` the TGI (ACHN renal) was 2.58 µM [sample A] and 31.7 µM [sample B] and 2.86 µM [sample C], the TGI (HL-60(TB) leukemia) was 1.17 µM [sample A] and > 30.9 µM [sample B] and 1.05 µM [sample C] and the TGI (RPMI-8226 leukemia) was 865 nM [sample A] and 31 µM [sample B]. The TGI (HS 578T breast) was 1.72 µM [sample A] and 26.4 µM [sample B] and 6.78 µM [sample C], the TGI (MOLT-4 leukemia) was 1.91 µM [sample A] and > 37.7 µM [sample B] and 1.45 µM [sample C] and the TGI (OVCAR-4 ovarian) was 793 nM [sample A] and 13.7 µM [sample B] and 658 nM [sample C]. For the same molecule, the TGI (DU-145 prostate) was 3.35 µM [sample A] and 29.5 µM [sample B] and 2.48 µM [sample C], the TGI (SR leukemia) was 2.87 µM [sample A] and 90.8 µM [sample B] and the TGI (CCRF-CEM leukemia) was 1.8 µM [sample A] and > 56.4 µM [sample B] and 6.41 µM [sample C]. The TGI (K-562 leukemia) was 3.3 µM [sample A] and > 45.2 µM [sample B] and 4.2 µM [sample C] and the TGI (SF-268 CNS) was 4.14 µM [sample A] and > 46.8 µM [sample B] and 3.3 µM [sample C].

`C/C(=N\NC(=S)N1CCN(C2CCCCCC2)CC1)c1ccccn1` was tested, and the TGI (HL-60(TB) leukemia) was 4.09 nM and 103 nM, the TGI (RPMI-8226 leukemia) was 17.6 nM and 545 nM and the GI50 (OVCAR-5 ovarian) was < 1 nM [1 test] and 69.2 nM [mean of 3 tests].

In the case of `C=C1COC(O)(C2OCOC(C3CC(=O)NC(=O)C3)C2O)C1C` (stereo unspecified), the TGI (SNB-19 CNS) is reported as 39.1 nM and > 100 µM, the TGI (HCT-15 colon) is reported as 49.2 nM and > 100 µM and the TGI (T-47D breast) is reported as 3.43 nM and 34.7 nM. The TGI (CAKI-1 renal) was 37.4 nM and 521 nM.

In the case of `COC(C(=O)C(O)C(C)O)C1Cc2cc3cc(OC4CC(OC5CC(O)C(O)C(C)O5)C(O)C(C)O4)c(C)c(O)c3c(O)c2C(=O)C1OC1CC(OC2CC(O)C(OC3CC(C)(O)C(O)C(C)O3)C(C)O2)C(O)C(C)O1` (stereo unspecified), the TGI (COLO 205 colon) is reported as 0.0208 µg/mL [1 test] and 0.00176 µg/mL [mean of 4 tests], the TGI (NCI-H522 lung) is reported as 0.0112 µg/mL [1 test] and 0.00126 µg/mL [mean of 4 tests] and the TGI (MALME-3M melanoma) is reported as 0.0691 µg/mL [1 test] and 0.00385 µg/mL [mean of 4 tests]. The TGI (SK-OV-3 ovarian) was 112 µg/mL [1 test] and 0.963 µg/mL [mean of 4 tests], the TGI (OVCAR-8 ovarian) was 13.6 µg/mL [1 test] and 2.49 µg/mL [mean of 4 tests] and the TGI (HCT-116 colon) was 112 µg/mL [1 test] and 12.2 µg/mL [mean of 2 tests]. The TGI (SF-295 CNS) was 26 µg/mL [1 test] and 0.0612 µg/mL [mean of 3 tests], the TGI (OVCAR-5 ovarian) was 112 µg/mL [1 test] and 0.333 µg/mL [mean of 3 tests] and the TGI (MDA-MB-435) was 0.145 µg/mL [1 test] and 5.41 µg/mL [mean of 2 tests]. The TGI (MOLT-4 leukemia) was 19.2 µg/mL [1 test] and 0.325 µg/mL [mean of 4 tests], the TGI (SK-MEL-2 melanoma) was 0.0112 µg/mL [1 test] and 0.00228 µg/mL [mean of 3 tests] and the TGI (M14 melanoma) was 0.222 µg/mL [1 test] and 2.29 µg/mL [mean of 2 tests]. The TGI (U251 CNS) was 112 µg/mL [1 test] and 2.82 µg/mL [mean of 4 tests], the TGI (NCI/ADR-RES ovarian) was 112 µg/mL [1 test] and 0.746 µg/mL [mean of 4 tests] and the TGI (A498 renal) was 0.0112 µg/mL [1 test] and 9.7e-05 µg/mL [mean of 2 tests]. For the same molecule, the TGI (EKVX NSCLC) was 6.49 µg/mL and 0.0557 µg/mL, the TGI (UO-31 renal) was 17.8 µg/mL [1 test] and 0.478 µg/mL [mean of 4 tests] and the TGI (A549 NSCLC) was 112 µg/mL [1 test] and 4.74 µg/mL [mean of 4 tests]. The TGI (UACC-62 melanoma) was 0.0112 µg/mL [1 test] and 0.000821 µg/mL [mean of 4 tests], the TGI (SNB-75 CNS) was 0.0752 µg/mL [1 test] and 0.0127 µg/mL [mean of 4 tests] and the TGI (HCC-2998 colon) was 0.0368 µg/mL [1 test] and 0.000957 µg/mL [mean of 3 tests]. For the same molecule, the TGI (SK-MEL-5 melanoma) was 0.0188 µg/mL [1 test] and 0.00511 µg/mL [mean of 3 tests], the TGI (NCI-H226 lung) was 0.0197 µg/mL [1 test] and 0.0011 µg/mL [mean of 3 tests] and the TGI (NCI-H460 lung) was 112 µg/mL [1 test] and 4.19 µg/mL [mean of 4 tests]. The TGI (SK-MEL-28 melanoma) was 0.0804 µg/mL [1 test] and 0.00188 µg/mL [mean of 4 tests], the TGI (NCI-H23 lung) was 0.0437 µg/mL [1 test] and 0.00342 µg/mL [mean of 4 tests] and the TGI (SF-539 CNS) was 0.0358 µg/mL [1 test] and 0.00249 µg/mL [mean of 2 tests]. The TGI (SN12C renal) was 112 µg/mL [1 test] and 4.74 µg/mL [mean of 4 tests], the TGI (CCRF-CEM leukemia) was 112 µg/mL [1 test] and 0.132 µg/mL [mean of 3 tests] and the TGI (SW-620 colon) was 112 µg/mL [1 test] and 15 µg/mL [mean of 3 tests]. For the same molecule, the TGI (PC-3 prostate) was 48.2 µg/mL [1 test] and > 150 µg/mL [mean of 2 tests], the TGI (TK-10 renal) was 0.335 µg/mL and > 150 µg/mL and the TGI (RXF 393 renal) was 0.0112 µg/mL [1 test] and 0.000805 µg/mL [mean of 3 tests]. For the same molecule, the TGI (IGROV1 ovarian) was 112 µg/mL [1 test] and 4.74 µg/mL [mean of 4 tests], the TGI (K-562 leukemia) was 41.8 µg/mL [1 test] and 0.999 µg/mL [mean of 4 tests] and the TGI (HOP-62 NSCLC) was 3.15 µg/mL [1 test] and 0.000461 µg/mL [mean of 2 tests]. The TGI (SF-268 CNS) was 35.3 µg/mL [1 test] and 0.862 µg/mL [mean of 4 tests] and the TGI (OVCAR-3 ovarian) was 14.8 µg/mL [1 test] and 0.292 µg/mL [mean of 3 tests].
